# Experimental data taken from PubChem BioAssay AID540317 (National Center for Advancing Translational Sciences (NCATS), 2011).
# The whole screen tested about 390,000 compounds, of which about 2,200 (0.56%) were called active. Inconclusive results, whose numbers are uncertain, are shown with a selection of clear calls. Calls come from the whole dose curve; as a rule, active = well fitted inhibition curve with a large enough effect; inconclusive = small, poorly fitted or top-dose-only effect; inactive = no such curve, though single readings can be large or run the other way. Potencies of inconclusive entries are doubtful fits and often do not repeat.
# Target: Chromobox protein homolog 1 (Homo sapiens) (UniProt P83916)
# Sequence of UniProt P83916 (P83916 whole entry, looked up): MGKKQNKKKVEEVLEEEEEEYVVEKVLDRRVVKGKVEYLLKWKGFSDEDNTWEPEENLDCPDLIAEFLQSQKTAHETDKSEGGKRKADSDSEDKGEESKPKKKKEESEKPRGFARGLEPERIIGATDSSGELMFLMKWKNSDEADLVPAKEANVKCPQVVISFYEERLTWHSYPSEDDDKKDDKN
# Assay: HTS for Inhibitors of HP1-beta Chromodomain Interactions with Methylated Histone Tails; note: nearly all actives have a fitted effect of over 70% in size
# Conditions: AlphaScreen HP1-beta / biotin-H3K9me3 peptide binding; series mostly up to 114 µM; activity change, negative = inhibition: at the top concentration
# How it was run: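 Compound inhibition of the preformed complex between 50 nM HP1-beta and 50 nM biotinylated H3K9me3 peptide was read by AlphaScreen. Buffer was PBS pH 7.4 with 0.01% Tween-20. Incubations ran 30 min at room temperature, with 10 ug/mL donor/acceptor beads.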
# Potency is the fitted concentration of half-maximal effect; tags give direction and shape of the fitted curve.
SMILES,"activity change, negative = inhibition",Potency
Cc1ccc(C)c(Cn2nnc3c(=O)[nH]c(C(=O)NCC4CCCO4)nc32)c1 (stereo unspecified),inactive: 18.3%,–
CCOc1ccc(S(=O)(=O)N2CCCCCC2)c2ccccc12,–,"inconclusive: 22.4 µM [inhibitor, single point]"
COc1ccc(-c2cnnn2-c2ccc(NC(=O)/C=C/c3ccc(OC)c(OC)c3)cc2)cc1,–,"inconclusive: 39.8 µM [inhibitor, single point]"
CCOP(=O)(OCC)C(NC(C)=O)C(=O)c1ccccc1 (stereo unspecified),inactive: 32.3%,–
Cc1cc2c(SCC(=O)Nc3ccccc3O)ncnc2s1,inactive: -18.9% [at 57 µM],–
CCCCc1nn2c(=O)cc(COC(=O)c3ccc(NC(=O)CCc4ccccc4)cc3)nc2s1,inactive: 18.8%,–
CCOC(=O)c1sc(=S)n(-c2ccc(C)cc2)c1N,–,"inconclusive: 15.8 µM [inhibitor, full curve]"
S=C1NCN(C2CCCCC2)CN1c1ccccc1,inactive: 24.9%,–
Cc1ccc([C@H]2C(C(=O)O)=CC[C@@H](c3cccs3)N2S(=O)(=O)c2ccc(C)cc2)cc1,inactive: 20.3%,–
c1ccc(-c2ccccc2OCCCCn2ccnc2)cc1,–,active: 39.8 µM
Cc1ccc(NC(=O)CN2CCC(C(=O)c3ccc4c(c3)OCCO4)CC2)cc1,–,"inconclusive: 39.8 µM [inhibitor, single point]"
COc1ccc(-c2nc(-c3ccccc3)c(-c3cc([N+](=O)[O-])ccc3C)[nH]2)cc1OC,–,"inconclusive: 50.1 µM [inhibitor, partial curve]"
Cc1cc(-c2ccccc2)c(C#N)c(=S)[nH]1,–,active: 79.4 µM
CCCn1c(SCC(=O)c2ccc3c(c2)OCCO3)nnc1C(C)C,–,"inconclusive: 8.91 µM [inhibitor, single point]"
Cc1ccc(CNC(=O)C(=O)NCC(c2ccco2)S(=O)(=O)c2ccc(C)cc2)cc1 (stereo unspecified),inactive: 33.7%,–
O=C(NCCCc1cnc[nH]1)NCCCN(Cc1ccc(Cl)cc1)c1ccc(Br)cn1,–,"inconclusive: 39.8 µM [inhibitor, partial curve]"
O=C(NNC1CC(=O)N(c2ccc3c(c2)OCCO3)C1=O)c1ccccc1 (stereo unspecified),inactive: 13%,–
CC1CCc2c(sc(NC(=O)c3cccs3)c2C(=O)O)C1 (stereo unspecified),inactive: 2.31%,–

SMILES,"activity change, negative = inhibition",Potency
O=S(=O)(Nc1cc(S(=O)(=O)N2CCOCC2)ccc1O)c1ccc2c(c1)OCCCO2,–,"inconclusive: 10 µM [inhibitor, full curve, poor fit]"
C[C@H]1CN([C@@H](C)CO)C(=O)Cc2cc(NS(=O)(=O)c3cn(C)cn3)ccc2O[C@@H]1CN(C)C(=O)Nc1ccc(F)cc1,inactive: 35.9%,–
Cn1c(SCC(=O)Nc2ccc(Cl)cn2)nnc1C1CC1,inactive: 45.4%,–
COCCCNCCCCOc1c(Cl)cc(C)cc1Br,–,"inconclusive: 17.8 µM [inhibitor, partial curve, poor fit]"
O=C1c2cccnc2C(=O)N1Cc1ccc(S(=O)(=O)NCc2ccco2)s1,inactive: 32.8%,–
CCC(c1nnc(SCC(=O)NCCc2ccc(Cl)cc2Cl)o1)N(C)C (stereo unspecified),inactive: 11.2%,–
Nc1nc(-c2cccs2)c(CC(=O)O)s1,inactive: 23.4%,–
N#Cc1c(C#N)c(SSc2c(C#N)c(C#N)c(N)n2-c2ccccc2)n(-c2ccccc2)c1N,–,"inconclusive: 3.98 µM [inhibitor, full curve, poor fit]"
O=c1c(-c2cc(-c3ccccc3)nc3c2COc2ccccc2-3)coc2ccc(Cl)cc12,inactive: 30.2%,–
O=C(CSc1ncn[nH]1)c1ccco1,–,"inconclusive: 70.8 µM [inhibitor, single point]"
O=C1/C(=C/c2ccccc2Cl)SC(=S)N1CCCC(=O)N(CCO)c1ccccc1,inactive: -23.3%,–
Cc1ccc(C(=O)N2CCN(c3ccc(NC(=S)NC(=O)Cc4ccccc4)cc3)CC2)cc1,–,"inconclusive: 35.5 µM [inhibitor, partial curve]"
Cc1ccc(S(=O)(=O)N2CCOCC2)cc1C(=O)NC(=S)N1CC(C)OC(C)C1 (stereo unspecified),inactive: 21.7%,–
O=C(c1ccc(-c2ccc([N+](=O)[O-])cc2)o1)N1CCCCCCC1,–,"inconclusive: 44.7 µM [inhibitor, partial curve]"
S=c1[nH]ncn1/N=C/c1ccccn1,–,"inconclusive: 89.1 µM [inhibitor, single point]"
C[C@@H]1NC(=O)c2cc([N+](=O)[O-])cc(I)c2NCCCC[C@@H](C(N)=O)NC(=O)[C@H](CCC(=O)O)NC1=O,inactive: 9.65%,–
Clc1cc(Br)ccc1OCCN1CCOCC1,–,"inconclusive: 35.5 µM [inhibitor, partial curve]"
COc1ccc(C(C(=O)NCCC(C)C)N(CCN2CCOCC2)C(=O)Cn2nnc3ccccc32)c(OC)c1 (stereo unspecified),–,"inconclusive: 44.7 µM [inhibitor, partial curve]"
